Assays:
Settings in all cases: immobilized protein
Human PTK7 protein = target: T1, Human PTK7 protein (Homo sapiens, UniProt Q13308); assay: Relative binding activity to human PTK7 by ELISA
T1 construct: purchased Acrobiosystems PT7-H52H3
T1 sequence (Q13308 31-1070): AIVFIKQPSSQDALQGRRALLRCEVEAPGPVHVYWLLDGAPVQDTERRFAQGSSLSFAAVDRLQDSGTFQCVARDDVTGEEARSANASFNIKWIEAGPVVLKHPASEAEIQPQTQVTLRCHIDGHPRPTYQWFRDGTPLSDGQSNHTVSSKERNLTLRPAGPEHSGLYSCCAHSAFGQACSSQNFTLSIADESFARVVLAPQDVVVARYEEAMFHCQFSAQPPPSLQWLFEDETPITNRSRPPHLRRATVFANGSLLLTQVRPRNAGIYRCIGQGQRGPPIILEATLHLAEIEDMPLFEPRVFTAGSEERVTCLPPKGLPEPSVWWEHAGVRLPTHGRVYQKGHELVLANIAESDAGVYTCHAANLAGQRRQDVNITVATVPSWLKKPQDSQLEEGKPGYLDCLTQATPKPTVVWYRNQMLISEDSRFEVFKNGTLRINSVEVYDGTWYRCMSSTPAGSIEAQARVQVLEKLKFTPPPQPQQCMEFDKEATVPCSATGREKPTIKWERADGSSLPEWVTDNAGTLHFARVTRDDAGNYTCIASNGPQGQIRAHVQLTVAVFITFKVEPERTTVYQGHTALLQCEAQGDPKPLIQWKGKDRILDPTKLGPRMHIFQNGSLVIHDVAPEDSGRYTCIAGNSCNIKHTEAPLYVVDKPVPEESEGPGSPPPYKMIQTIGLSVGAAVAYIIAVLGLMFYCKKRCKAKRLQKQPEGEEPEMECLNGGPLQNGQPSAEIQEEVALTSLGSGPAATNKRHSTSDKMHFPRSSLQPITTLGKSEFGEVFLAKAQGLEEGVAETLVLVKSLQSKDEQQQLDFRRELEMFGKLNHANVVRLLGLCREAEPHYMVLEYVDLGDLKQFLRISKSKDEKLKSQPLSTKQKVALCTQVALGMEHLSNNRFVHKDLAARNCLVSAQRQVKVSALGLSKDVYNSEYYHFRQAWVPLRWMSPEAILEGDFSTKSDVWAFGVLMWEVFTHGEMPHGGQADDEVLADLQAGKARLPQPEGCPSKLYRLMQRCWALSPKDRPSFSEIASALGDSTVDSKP
Method: (§1) Human PTK7 protein (Catalog No. PT7-H52H3, Acrobiosystems), monkey PTK7 protein (Catalog No. PT7-C52H3, Acrobiosystems), and murine PTK7 protein (Catalog No. PT7-M52H3, Acrobiosystems) were incubated at 4° C. overnight and immobilized onto a 96-well plate. The plate was then blocked by incubating at 37° C. with 1% BSA in PBS for 1 h. After blocking, the plate was washed 3 times with PBST (PBS containing 0.05% Tween 20). Serial dilutions of anti-PTK7 antibody as prepared in Example 2 of the present disclosure was prepared in a binding buffer (PBS containing 0.05% Tween20 and 0.5% BSA) and incubated with the immobilized proteins at 37° C. for 1 h. After binding, the plate was washed 3 times with PBST, incubated with peroxidase-labeled donkey anti-human IgG (Jackson ImmunoResearch) diluted at 1/15,000 in the binding buffer at 37° C. for 1 h, washed again, developed with TMB and terminated with 1M H2SO4. The absorbance at 450 nm-620 nm was measured.

monkey PTK7 protein = assay: Relative binding activity to monkey PTK7 by ELISA
Method: as §1

murine PTK7 protein = target: T2, murine PTK7 protein (Mus musculus, UniProt Q8BKG3); assay: Relative binding activity to murine PTK7 by ELISA
T2 construct: purchased Acrobiosystems PT7-M52H3
T2 sequence (Q8BKG3 23-1062): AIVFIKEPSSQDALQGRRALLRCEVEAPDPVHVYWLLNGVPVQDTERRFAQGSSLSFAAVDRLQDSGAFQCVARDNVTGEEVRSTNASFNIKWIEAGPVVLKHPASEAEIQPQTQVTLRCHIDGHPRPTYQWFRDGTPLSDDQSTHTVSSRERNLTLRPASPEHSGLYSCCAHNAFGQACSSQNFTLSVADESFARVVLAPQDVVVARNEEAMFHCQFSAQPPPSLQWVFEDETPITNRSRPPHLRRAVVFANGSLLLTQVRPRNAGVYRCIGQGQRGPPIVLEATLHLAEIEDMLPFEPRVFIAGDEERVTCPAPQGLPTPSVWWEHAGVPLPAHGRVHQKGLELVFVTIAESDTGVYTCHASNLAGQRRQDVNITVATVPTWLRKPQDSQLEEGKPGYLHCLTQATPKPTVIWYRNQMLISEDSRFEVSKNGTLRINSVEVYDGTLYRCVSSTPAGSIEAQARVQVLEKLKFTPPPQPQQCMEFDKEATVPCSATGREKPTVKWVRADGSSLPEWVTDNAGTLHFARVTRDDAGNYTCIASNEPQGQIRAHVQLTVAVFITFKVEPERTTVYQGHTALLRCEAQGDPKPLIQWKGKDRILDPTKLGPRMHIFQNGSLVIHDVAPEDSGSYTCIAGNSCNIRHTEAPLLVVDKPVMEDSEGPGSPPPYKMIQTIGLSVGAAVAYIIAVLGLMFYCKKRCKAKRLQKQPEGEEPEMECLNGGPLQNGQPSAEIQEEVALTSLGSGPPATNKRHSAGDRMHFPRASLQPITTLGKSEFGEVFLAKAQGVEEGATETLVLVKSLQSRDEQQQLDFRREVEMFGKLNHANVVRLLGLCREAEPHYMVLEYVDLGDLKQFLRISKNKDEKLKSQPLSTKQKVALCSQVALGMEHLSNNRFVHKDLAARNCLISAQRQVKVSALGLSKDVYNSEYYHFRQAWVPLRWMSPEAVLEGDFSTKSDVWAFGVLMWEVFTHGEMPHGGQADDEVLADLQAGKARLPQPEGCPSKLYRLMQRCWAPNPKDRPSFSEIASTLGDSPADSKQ
Method: as §1

binding to human PTK7 protein (Human PTK7 protein): specifically bind | binding to monkey PTK7 protein (monkey PTK7 protein): specifically bind
B1: h6M24: positive control anti-PTK7 antibody, heavy and light chains SEQ ID NOs: 26 and 27 (antibody)
heavy: QVQLVQSGPEVKKPGASVKVSCKASGYTFTDYAVHWVRQAPGKRLEWIGVISTYNDYTYNNQDFKGRVTMTRDTSASTAYMELSRLRSEDTAVYYCARGNSYFYALDYWGQGTSVTVSS[letters of human IgG1 constant region omitted]
light: EIVLTQSPATLSLSPGERATLSCRASESVDSYGKSFMHWYQQKPGQAPRLLIYRASNLESGIPARFSGSGSGTDFTLTISSLEPEDFAVYYCQQSNEDPWTFGGGTKLEIKRTVAAPSVFIFPPSDEQLKSGTASVVCLLNNFYPREAKVQWKVDNALQSGNSQESVTEQDSKDSTYSLSSTLTLSKADYEKHKVYACEVTHQGLSSPVTKSFNRGEC
cross-reaction with mouse PTK7 (murine PTK7 protein): neither ch13 nor h6M24 antibodies cross-react
